Biological target: human Kv1.3 channel (human)
Assay: cell-based or functional assay

B1: Fc-L10-ShK[[…]] (CHO-derived, bivalent dimeric) (Fc fusion)
chain: not shown
  IC50 of block of the outward potassium current, whole cell patch clamp: 0.015 nM
